According to PubChem BioAssay AID1794842 (National Center for Advancing Translational Sciences (NCATS), 2023):
Fewer than 10 of roughly 2,800 compounds were called active. Calls follow the shape of the dose curve; as a rule, active = well fitted curve in the direction sought with a large enough effect; inconclusive = small, poorly fitted or top-dose-only effect, or another doubt; inactive = no such curve, though single readings can be large or run the other way. Some of the results follow.

molecular target: Metallo-beta-lactamase type 2 (Klebsiella pneumoniae) (UniProt C7C422); test: qHTS to identify inhibitors of the New Delhi Metallo-beta-lactamase (NDM): Meropenem screen against the machine-based learning selections.; also: % of control where 0% means no effect; details: Purified NDM-1, meropenem hydrolysis, absorbance 300 nm; at 38.4 µM (top of the series) unless noted
Chain of UniProt C7C422 (C7C422 whole entry, looked up): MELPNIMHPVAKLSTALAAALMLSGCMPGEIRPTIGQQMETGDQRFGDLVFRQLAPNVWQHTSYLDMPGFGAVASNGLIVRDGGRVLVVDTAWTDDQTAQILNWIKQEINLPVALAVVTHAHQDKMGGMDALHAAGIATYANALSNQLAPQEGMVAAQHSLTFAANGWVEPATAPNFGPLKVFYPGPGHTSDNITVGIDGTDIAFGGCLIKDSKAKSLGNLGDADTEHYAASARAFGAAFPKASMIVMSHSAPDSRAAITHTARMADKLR
Method in brief: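 Hydrolysis by 2 nM NDM-1 was followed by absorbance after >30 min compound preincubation in HEPES pH 7.0 buffer with 1 uM Zn2SO4. For nitrocefin (16.7 uM, 15 min, 485 nm) and meropenem (50 uM, 30 min, 300 nm), each substrate ran on separate plates.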

Activity change, negative = inhibition, inactive:
Cc1ccc(-c2ccc(N)nc2)c2cccnc12 23%
c1cncc(COc2cc3c(cn2)NCCN(Cc2ccc4[nH]ccc4c2)C3)c1 4.63% [at 57.5 µM]
O[C@H]1CC[C@@H](Cc2cc(COc3ccccc3)on2)O[C@@H]1CNC1CCNCC1 2.49%
CCN(CC)C(=O)C[C@@H]1CCNC[C@@H]1Cc1cc(-c2ccc(C(C)(C)C)cc2)on1 -1.07% [at 57.5 µM]
COc1ccc2c(c1)OCC(CNC(=O)c1noc3c1CCCC3)C2 (configuration not stated) -0.417%
COc1cc(SC)ccc1C(=O)N[C@H]1CCN2C(=O)N(c3ccc(OC(F)(F)F)cc3)C(=O)[C@@H]2C1 5.45%
O=C(Nc1ccccc1)Nc1ccc([C@@H](O)[C@H]2COCC(=O)N2Cc2cccnc2)cc1 -1.94% [at 57.5 µM]
COC(=O)c1ccc(N2C[C@H]3OC(=O)N(CCc4ccc(OC)cc4)[C@H]3C2)nc1 11.7%
O[C@@H]1C[C@@H](c2nc(Cc3ccc(F)cc3Cl)no2)N(Cc2ccc(OC(F)(F)F)cc2)C1 -1.29%
C[S+](=O)([O-])c1cccc(NC(=O)Cc2c[nH]c3ncc(-c4ccccc4)cc23)c1 3.35% [at 57.5 µM]
O=C(O)CCc1cc2n(n1)CCCN(C(=O)c1ccc3n[nH]nc3c1)C2 -2.75%
O=C(O)CCc1nc(C2CCOCC2)n[nH]1 5.48%
CC(C)C(=O)NCCC1CCN(C(=O)Nc2cc(F)ccc2F)CC1 1.4%
CC(C)CN(Cc1cccnc1)C1CN(C(=O)NCc2ccc(F)cc2)C1 2.03%
COC(=O)[C@H](NC(=O)[C@@H]1[C@@H](NC(=O)Nc2cccc(SC)c2)CCN1C(=O)C=C(C)C)C(C)C 1.72%
O=C(CCn1nnc(-c2ccccc2)n1)N1CCCC2(CCNCC2)CC1 -4.15%
CC(=O)N1CCN(C(=O)c2cc(CC(C)C)[nH]c(=O)n2)CC(O)C1 (configuration not stated) 5.88%
CC(c1cccc(-c2nc3c(cc2C(N)=O)CCC3)c1)N1CCCC1 (configuration not stated) 0.919%
COc1ccc(CN2C(=O)[C@@H]3C[C@@H](O)CN3C3(CN(C(C)C)C3)C2=O)cc1 3.99% [at 57.5 µM]
Cc1cnc(C(=O)NC2CC(c3nnc(CO)n3C3CC3)C2)[nH]1 (configuration not stated) -2.68%
O=C(Cn1cnnn1)N1CCc2ncnc(NC[C@H]3CCCO3)c2CC1 0.304%
CC[C@H]1CN(C(=O)C2CC2)CC[C@H]1CC(=O)N(C)CCC#N -0.61% [at 57.5 µM]
COC(=O)[C@@H]1Cc2c([nH]c3ccccc23)[C@@H]2C[C@@H](NCCNC(C)=O)C[C@@H](c3cccc(Cl)c3)N12 -0.597%
Cc1cc(C)c(S(=O)(=O)N2CCCC(Cn3cc(CO)nn3)C2)c(C)c1 (configuration not stated) -0.0275%
Cc1ncc2n1C(=O)N(C1CCN(Cc3ccsc3)CC1)C2 3.56% [at 57.5 µM]
COc1ccc(-c2nc3c(c(=O)[nH]2)CCN(C(=O)Nc2ccc4c(c2)CCC4)C3)cc1 -1.88%
CN1c2cc(C(=O)NCc3cccs3)ccc2C(=O)N2CCCCC21 (configuration not stated) -0.378%
OCC1CN(Cc2cscn2)CCC12CCN(Cc1ccccc1)CC2 (configuration not stated) -1.72%
COC(=O)[C@H](NC(=O)[C@@H]1C[C@@H](NS(=O)(=O)c2cccc(C(F)(F)F)c2)CCN1C(=O)CCC(=O)O)C(C)C 0.233%
C[S+](=O)([O-])c1ccc(-c2cnc3n[nH]c(-c4ccccc4)c3n2)cc1 2.47% [at 57.5 µM]
Cn1cc(-c2cnc3[nH]cc(CC(=O)Nc4cccnc4)c3c2)cn1 0.84% [at 57.5 µM]
Cc1ccc(-c2nnc([C@H]3CCN(C(=O)CCC(=O)O)C3)o2)cc1 5.13% [at 57.5 µM]
O=C(O)c1ccc(NCc2nc3c(n2Cc2ccccc2)C(=O)N(Cc2cccc(Cl)c2)CCN3)cc1 7.74%
O=C(NC1CCC(O)CC1)c1ccc(-c2ncc3cnc(-c4ccccc4)cn23)cc1 (configuration not stated) 0.926% [at 76.7 µM]
COc1cc(C)c2c(c1C)C[C@H](C(C)C(=O)NCc1cccs1)CC2 (some centres not stated) 1.31% [at 57.5 µM]
CC(=O)N1CCN(C(=O)C[C@@H]2c3nc(NC(=O)C(C)(C)C)sc3C[C@@H]3[C@](C)(CO)[C@H](O)CC[C@]32C)CC1 4.25%
Cc1ccc(OC2(C(=O)NC(C)c3nn[nH]n3)CCNCC2)cc1 (configuration not stated) 18.8%
O=C(N[C@@H]1CCN(Cc2cccc3nonc23)C[C@H]1O)c1cccnc1 0.258%
c1ccc(CCN2CCNc3cc(NCc4cccnc4)ncc3C2)cc1 2.19% [at 57.5 µM]
CN1CCC(N2CC3(C2)C(=O)N(C)C(=O)[C@@H]2C[C@@H](O)CN23)CC1 14.6% [at 57.5 µM]
O=C(O)C1Cc2nc[nH]c2CN1C(=O)c1cccc(-n2cccn2)c1 (configuration not stated) 28.1%
Oc1cccc(-c2cnc3n[nH]c(-c4ccccc4)c3n2)c1 1.8% [at 76.7 µM]
COc1ccc2[nH]c3c(c2c1)CCN(C)C31CCN(C(=O)c2ccccn2)CC1 -2.02%
OC(c1cccc(C(F)(F)F)c1)c1nc(Nc2ccc(N3CCOCC3)cc2)n[nH]1 (configuration not stated) 52.7% [at 57.5 µM]
N[C@@H](Cc1cnc[nH]1)C(=O)N1CCC2(CC1)Nc1ccccc1NC2=O 23.4%
Clc1ccc(-c2cnc([C@@H]3COCCN3C3CCNCC3)[nH]2)s1 10.7% [at 57.5 µM]
Cn1ccc(NC(=O)C2(C)CCCc3cnc(NCc4ccccc4)nc32)n1 (configuration not stated) 1.43% [at 57.5 µM]
COc1ccccc1Oc1ncccc1CNC(=O)Nc1cccc(C#N)c1 -0.678%
CSc1ccc(-c2nc(CN(C)Cc3cnccn3)c(C)o2)cc1 38.9%
O=C(CCn1cnnn1)N1CCC2(CC1)Nc1ccccc1NC2=O -4.74%
CC[C@H]1CN(C(C)=O)CC[C@H]1CC(=O)NC(C)C 1.4% [at 76.7 µM]
OC(c1nc(Nc2cccc(Cl)c2)n[nH]1)C1CC1 (configuration not stated) 1% [at 0.0117 µM]
Cc1cccc(-c2cccc(CCOc3cnc4c(ccn4CC(=O)O)c3)c2)c1 10.7% [at 57.5 µM]
CCc1cn(C[C@H](NC2CCOCC2)C(=O)O)c(=O)[nH]c1=O 48.7% [at 57.5 µM]
COc1ccc(C[C@H](NC(=O)[C@@]2(O)C[C@@H](O)[C@H](O)[C@@H](NC(=O)Nc3ccc(C(C)=O)cc3)C2)C(N)=O)cc1 3.74%
O[C@@H]1CCN(Cc2nc(C3(O)CCN(C4CCCC4)CC3)cs2)C1 -2.53% [at 57.5 µM]
O=C(NC1CCCN(c2cc(-c3ccc(F)cc3)[nH]n2)C1)c1cccc(Cl)c1 (configuration not stated) 3.59%
O=C(Nc1ccccc1)c1cnc2n1CCN(Cc1cccc(O)c1)CC2 2.61% [at 57.5 µM]
CC(=O)N[C@@H]1CCC[C@@H](C(=O)NC2CCOCC2)CC(=O)N(C)C1 0.046% [at 57.5 µM]
O=C(NCc1nncn1C1CCCCC1)C1NCCc2[nH]cnc21 (configuration not stated) 8.92%
COc1ccc(CN2CCC3(CCC(=O)N(Cc4ccncc4)C3)CC2)c(F)c1 -1.3%
NC(=O)c1cccc(-c2cc3c(cn2)CN(CCc2ccccc2)CCN3)c1 -0.665% [at 57.5 µM]
CC1=C[C@@H](CNS(=O)(=O)c2ccc(F)cc2)[C@H](C(C)C)C[C@H]1CC(=O)NCCN(C)C -3.42%
N#Cc1cccc(NC(=O)c2cccc(CN3CCN(CCO)CC3)c2)c1 0.293%
O=C(N[C@H](Cc1ccncc1)C1CC(O)C1)c1cccn1C1CC1 (some centres not stated) -0.0289%
Cn1cc(CN[C@H]2C[C@H]3C(=O)NC[C@@H](CCC(=O)N4CCc5ccccc54)N3C2)c2ccccc21 -1.57%
O=C(Nc1ccc(-c2nnc3n2CCCC3)cc1)c1ccc2c(c1)OCO2 10.4%
COc1cccc(CCC(=O)N2CCC3(CC2)N(c2ccccc2)C(=O)CS3(=O)=O)c1 0.744%
COc1ccc(CNC(=O)C[C@@H]2C[C@H]3O[C@H](CNC(=O)NC(C)C)[C@@H](O)[C@H]3O2)cc1 -0.0225% [at 57.5 µM]
O=C(c1ccncc1)N1CC[C@H](c2nnc(-c3ccncc3)o2)C1 -2.73% [at 57.5 µM]
COCc1nnc2n1CCC(NC(=O)COc1ccc(Cl)cc1)CC2 (configuration not stated) 1.62%
Cc1cccc(N(C)C(=O)Cn2c(N3CCc4ccccc4C3)nc(C)cc2=O)c1 -2.52%
O=C(NC[C@H]1OC[C@@H](NCc2cccs2)[C@@H]1O)Nc1ccccc1 -0.201% [at 57.5 µM]
COCCNc1ncccc1-c1noc([C@@H]2CCCN2CC(C)(C)C)n1 2.51% [at 57.5 µM]
O=C(O)c1ccc(C2CCCN(C(=O)c3cccc4cccnc34)C2)cc1 (configuration not stated) 2.45%
c1ccc(Nc2cc3c(cn2)CN(Cc2ccsc2)CCN3)cc1 -0.268% [at 57.5 µM]
C[C@]1(CO)[C@H]2Cc3sc(NC(=O)C4CCCCC4)nc3[C@@H](CC(=O)N3CCOCC3)[C@]2(C)CC[C@H]1O -0.0233%
